# Measurements reported in the supplement of paper PMC6531468.
# This is one part of the list. Values come from read counts of a selection and are noisy. Each score is taken over the longer molecules that contain the sequence shown.
# System: IMP3 KH1-2
# Test: 6-mer SELEX enrichment z-score vs GST control; IMP3 is the RNA-binding protein IGF2BP3; higher = more enriched by binding
# Conditions: construct: KH1-2 (164-376); SELEX round: R4
# Method: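 SELEX-seq with GST-tagged IMP3 KH1-2 (Pro164-Phe376) and an N40 RNA pool, round 4 (stringent 300/600 mM KCl washes). 6-mer z-score of sequence-tag enrichment normalised to the corresponding GST SELEX round; RNA k-mers written as DNA (T for U).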
# Sequence of IMP3 KH1-2 (chain, as listed by the source): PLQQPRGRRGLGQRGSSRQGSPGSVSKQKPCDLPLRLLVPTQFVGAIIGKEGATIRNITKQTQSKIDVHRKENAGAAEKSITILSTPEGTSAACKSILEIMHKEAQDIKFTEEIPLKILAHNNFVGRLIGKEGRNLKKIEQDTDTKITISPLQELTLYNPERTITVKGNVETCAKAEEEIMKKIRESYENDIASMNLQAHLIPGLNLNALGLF
row,Sequence,6-mer SELEX enrichment z-score
1,TATCTC,0.202
2,CAGACC,-0.769
3,AAGTTG,-0.362
4,CCTCCG,-0.162
5,AGAGTG,-1.15
6,ACCTTG,-1.3
7,CCCCGT,-0.27
8,TACTCC,-0.606
9,CGGAAA,-0.576
10,GGGCCC,-0.506
11,TCAAGG,-0.407
12,ACGTGG,-0.493
13,CATAGG,0.428
14,CGAATG,-0.909
15,GCCCCT,-0.135
16,CATGGT,0.114
17,CCGCAG,-0.017
18,GAGTTC,-0.176
19,CGAAAG,-1.77
20,CAAGTA,-0.2

row,Sequence,6-mer SELEX enrichment z-score
1,GACAGA,0.427
2,GCGTTT,-0.62
3,CAAAAA,-1.83
4,GTACCA,-1.01
5,TGTGTT,0.086
6,CAAGCA,-0.221
7,TTGCTT,0.309
8,CAGCTG,-0.003
9,GGTGTC,-0.313
10,CGTCAG,-0.434
11,CGCGAC,-0.637
12,AAGACG,-0.889
13,AAATAG,0.571
14,ATCAAC,0.582
15,AACTTA,0.634
16,GGGGAG,1.59
17,GGGCCT,-0.234
18,GACTAC,-0.251
19,CAAAAG,-1.73
20,AAAATT,0.75
